# Experimental data as given in PubChem BioAssay AID686979 (National Center for Advancing Translational Sciences (NCATS), 2013).
# The whole screen tested about 420,000 compounds, of which about 50,000 (12%) were called active. The inconclusive results got no clear call from the source; some entries with a clear call stand among them for comparison. The call rests on the fitted dose curve; in most records, active means well fitted inhibition curve with a large enough effect; inconclusive means small, poorly fitted or top-dose-only effect; inactive means flat fitted curve, though single readings scatter. Potencies of inconclusive entries are left out as doubtful fits.
# Assay: qHTS for Inhibitors of human tyrosyl-DNA phosphodiesterase 1 (TDP1): qHTS in cells in presence of CPT; further: nearly all actives have a fitted effect of over 55% in size
# Settings: chicken DT40 Tdp1-/-;hTDP1 cells + 20 nM CPT, ATP luminescence, 48 h; series mostly up to 46.2 µM
# Summary of the method: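 Cell growth measured by CellTiter-Glo luminescence after a minimum 48 h, 37 C compound exposure with 20 nM CPT in Tdp1-knockout DT40 cells stably expressing hTDP1, seeded 400/well; qHTS titration format.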
# Potency means the concentration at half of the fitted maximal effect; tags describe the fitted curve by direction and shape.
row,SMILES,Potency
1,CC(CN(C)Cc1ccccc1)OC(=O)c1cccc(F)c1 (configuration not stated),inactive
2,CC(=O)Nc1cccc(C(=O)N/N=C/c2c[nH]c3ccccc23)c1,inactive
3,CCN(Cc1ccccc1)C(=O)Cn1cc2c(n1)CCCC2,inactive
4,CCOc1cc(/C=C2\COc3ccccc3C2=O)ccc1OCC(=O)N(C)C,"inconclusive [inhibitor, single point]"
5,Cc1ccc(OCC(=O)N2CCc3ccccc3C2)c(C)c1,inactive
6,O=C(c1ccc([N+](=O)[O-])s1)N1CCN(c2ccccn2)CC1,active: 23.1 µM
7,Cc1ccc(OCCCCc2c(C)n[nH]c2C)cc1,"inconclusive [inhibitor, partial curve]"
8,O=S(=O)(NCc1ccc2c(c1)OCO2)c1ccc(F)c(F)c1,inactive
9,CCCN1C(=O)C2(c3ccccc31)c1c(oc3cc(C)c(C)cc3c1=O)C(=O)N2CCCOC (configuration not stated),"inconclusive [inhibitor, single point]"
10,O=C(COC(=O)CSc1ccc([N+](=O)[O-])cc1)NCCc1ccccc1,inactive
11,COc1ccc(CNc2ncncc2-c2cccc(NS(C)(=O)=O)c2)c(OC)c1,inactive
12,CN(c1ccccc1C(=O)Nc1ccccc1-c1ccccc1)S(C)(=O)=O,inactive
13,O=C(Cc1ccc(NS(=O)(=O)c2ccc(F)cc2)cc1)NCc1ccccc1,"inconclusive [inhibitor, single point]"
14,COc1cccc(NC(=O)COC(=O)/C=C/c2c(C)nn(-c3ccccc3)c2C)c1,"inconclusive [inhibitor, single point]"
15,CCOc1ccc(C(=O)Nc2cc(C)ccn2)cc1,active: 7.31 µM
16,O=C(c1cnn2c(C(F)(F)F)cc(-c3ccc4c(c3)OCO4)nc12)N1CCCC1,"inconclusive [inhibitor, partial curve]"
17,COC1=C(C)C(O)=C(C(=O)/C=C/c2ccccc2)C(=O)C1(C)C,"inconclusive [inhibitor, single point]"
18,O=C(COc1ccccc1)NCC(=O)N/N=C/c1cccs1,inactive
19,CC(C)OCCCNc1ncc2c(n1)CC(c1cccs1)CC2=O (configuration not stated),"inconclusive [inhibitor, single point]"
20,CC(=O)N1c2ccc(S(=O)(=O)N3CCC(C(=O)NCc4ccccc4)CC3)cc2CC1C (configuration not stated),"inconclusive [inhibitor, partial curve]"
21,COc1ccc(CCNC(=O)C2CCN(S(=O)(=O)c3ccc4nc5c(c(C(=O)O)c4c3)CCCC5)CC2)cc1OC,inactive
22,COc1ccc(OC)c(NC(=O)[C@H](Cc2ccccc2)N2Cc3ccccc3C2=O)c1,"inconclusive [inhibitor, partial curve]"
23,Cc1ccc(C)c(S(=O)(=O)N2CC(=O)N(CCc3ccccc3)C(=O)C2)c1,inactive
24,O=C(CC1C(=O)N(c2ccccc2)C(=O)N1CCc1cccs1)Nc1ccc(Cl)cc1 (configuration not stated),active: 20.6 µM

row,SMILES,Potency
1,Cc1c(C(=O)Nc2cccc(C(F)(F)F)c2)oc2ccc(S(=O)(=O)N(C)C3CCCCC3)cc12,active: 11.6 µM
2,COc1ccc([N+](=O)[O-])cc1NC(=O)C(C)Sc1ccccc1 (configuration not stated),"inconclusive [inhibitor, single point]"
3,CCNC(=O)c1ccc(-n2c(-c3ccccc3)cc3c2CCCCC3)cc1,"inconclusive [inhibitor, single point]"
4,CCCCN(C(=O)C1=CC=CN2CCS(=O)(=O)N=C12)c1ccccc1,inactive
5,CCCCCc1cc(=O)oc2c(C(CCN(CC)CC)c3cc(OC)c(OC)c(OC)c3)c(OC)cc(OC)c12 (configuration not stated),"inconclusive [inhibitor, single point]"
6,CC(OC(=O)CN1C(=O)NC2(CCCC2)C1=O)C(=O)c1ccccc1 (configuration not stated),inactive
7,CCOC(=O)[C@H]1[C@H]2COc3ccc(Cl)cc3[C@@H]2N2C(=O)CN(Cc3ccc(F)cc3)C(=O)[C@@]12C,"inconclusive [inhibitor, single point]"
8,Cc1ccc(/C=N/NC(=O)Cn2ccc(C(F)(F)F)n2)o1,inactive
9,O=C(Nc1cccc(C(F)(F)F)c1)N1CCN(C(=O)Nc2cccc(C(F)(F)F)c2)CC1,inactive
10,CCOc1ccc(N(CC(=O)Nc2ccc(C)cc2)S(=O)(=O)c2c(C)[nH]c(=O)[nH]c2=O)cc1,inactive
11,Cc1occc1C(=O)N/N=C/c1cccnc1,inactive
12,CCOC(=O)CNc1ncnc2c1nnn2C,inactive
13,Cc1ccc(C)c(NC(=O)C(Sc2nc3ccc(C)cc3[nH]2)c2ccccc2)c1 (configuration not stated),"inconclusive [inhibitor, single point]"
14,CCOC(=O)C(=O)/C(=C\N(C)C)c1onc(-c2ccccc2Cl)c1C(=O)OC,"inconclusive [inhibitor, single point]"
15,CC(=O)Nc1nonc1-c1nnc(SCc2ccc(C)cc2)n1C,"inconclusive [inhibitor, single point]"
16,Cc1cccn2c(=O)c(/C=C(\C#N)c3nc4ccccc4n3C)c(Oc3ccc(Cl)cc3)nc12,"inconclusive [inhibitor, single point]"
17,Cc1ccc(NC(=S)NCc2ccc3c(c2)OCO3)c(C)c1,"inconclusive [inhibitor, single point]"
18,COc1cc(OC)cc(C(=O)NC2CCN(CC(=O)Nc3cccc4ccccc34)CC2)c1,inactive
19,O=C(O)COc1ccccc1/C=C1\SC(=S)N(c2cccnc2)C1=O,"inconclusive [inhibitor, single point]"
20,O=C(CCC(=O)Nc1ccc(Cl)cc1Cl)NNC(=O)[C@@H]1CCCC[C@@H]1C(=O)O,inactive
21,CCCc1cc(=O)[nH]c2nnc(SCC(=O)Nc3cccc(C)c3)n12,inactive
22,CC(C)c1nnc(NC(=O)CCC(=O)N2CCN(c3cccc(Cl)c3)CC2)s1,"inconclusive [inhibitor, single point]"
23,CN1CCc2c(sc3nc(SCC(=O)NCc4ccco4)n(-c4ccccc4)c(=O)c23)C1,"inconclusive [inhibitor, single point]"
